Experimental data reported in PubChem BioAssay AID1159614 (National Center for Advancing Translational Sciences (NCATS), 2016).
The campaign covered roughly 45,000 compounds. About 65 (0.1%) were called active. Calls come from the whole dose curve; as a rule, active = well fitted activation curve with a large enough effect; inconclusive = small, poorly fitted or top-dose-only effect; inactive = no such curve, though single readings can be large or run the other way. Some of the results follow.

Biological target: Galactocerebrosidase (Homo sapiens) (UniProt P54803)
Assay: A Novel Cell-Based Assay to Identify Small Molecules for B -Galactocerebrosidase; note: 0% is about no effect; nearly all actives have a fitted effect of over 65% in size
Settings: 145M-Twi-hGALC-G270D cells (Twitcher mouse brain line with human GALC G270D), HMU-beta-Gal fluorescence, 48 h; series mostly up to 57.5 µM; activation: at the top concentration
In short: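 Mutant human GALC (G270D), stably expressed in a Twitcher mouse brain cell line lacking endogenous GALC, is measured in live-treated cells via 6-hexadecanoylamino-4-methylumbelliferyl-β-galactoside hydrolysis (0.1 mM final, pH 5.2) with fluorescent detection.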

UniProt P54803, sequence (P54803 whole entry, looked up): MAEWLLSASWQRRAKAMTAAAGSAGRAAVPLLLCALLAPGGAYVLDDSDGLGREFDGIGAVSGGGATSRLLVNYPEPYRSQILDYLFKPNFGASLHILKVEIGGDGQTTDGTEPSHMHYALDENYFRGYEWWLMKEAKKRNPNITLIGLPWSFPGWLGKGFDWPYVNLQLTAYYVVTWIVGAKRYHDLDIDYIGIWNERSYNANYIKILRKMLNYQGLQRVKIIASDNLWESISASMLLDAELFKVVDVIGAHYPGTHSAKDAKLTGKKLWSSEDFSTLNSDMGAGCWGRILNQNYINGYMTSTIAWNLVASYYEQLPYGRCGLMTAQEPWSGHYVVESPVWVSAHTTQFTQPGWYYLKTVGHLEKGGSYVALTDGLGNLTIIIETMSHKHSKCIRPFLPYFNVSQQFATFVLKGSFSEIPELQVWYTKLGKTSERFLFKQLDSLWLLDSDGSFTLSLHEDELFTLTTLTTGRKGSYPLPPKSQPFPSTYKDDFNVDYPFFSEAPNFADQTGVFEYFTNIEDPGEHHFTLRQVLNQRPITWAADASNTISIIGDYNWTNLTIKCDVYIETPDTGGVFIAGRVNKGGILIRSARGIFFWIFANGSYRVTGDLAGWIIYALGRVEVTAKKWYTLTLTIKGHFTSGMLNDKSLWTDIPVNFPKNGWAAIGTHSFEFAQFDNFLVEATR

activation, inactive:
CCOC(=O)c1cccc(NC(=O)[C@@H](c2ccccc2)N2Cc3ccccc3C2=O)c1 -5.53%
O=C1c2oc3ccccc3c(=O)c2C(c2ccccc2)N1Cc1ccc2c(c1)OCO2 (stereo not drawn) -11.2%
CN1C(=O)c2ccccc2Sc2ccc(NC(=O)c3ccccc3F)cc21 -4.78%
CC1COc2c(N3CCN(C)CC3)c(F)cc3c(=O)c(C(=O)O)cn1c23 (stereo not drawn) -6.49%
CCN1C(=O)c2ccccc2Sc2ccc(C(=O)NCCCN(CC(C)C)CC(C)C)cc21 0.187%
Cc1cc(C)c(NC(=O)Cc2csc(C)n2)c(Cl)c1 -6.43%
O=C(NCC1CCN(Cc2cccc(Cl)c2)CC1)Nc1cc(Cl)ccc1Cl -10.1%
COc1cccc(NC(=O)CN2C(=O)c3cccnc3Oc3ccc(Cl)cc32)c1 -11%
COc1ccc(N(C)C(=O)CCn2cnc3onc(-c4ccc(F)cc4)c3c2=O)c(OC)c1 -5.75%
CCc1ccc(NC(=O)c2sc(-n3nc(C)c(Cc4ccc(OC)cc4)c3C)nc2C)cc1 2.44%
COC(=O)c1c(-c2cccs2)csc1NC(=O)COc1ccc(C(C)(C)C)cc1 -3.62%
COc1ccccc1CNc1ccc(-c2nc(-c3cccnc3)no2)cc1[N+](=O)[O-] -2.94%
Cc1ccc(C(=O)Nc2ccc(-c3cn4cccnc4n3)cc2)cc1C 13.4%
CCOc1ccccc1NC(=O)c1nn(-c2ccc(C)cc2)c(=O)n(C)c1=O -11.3%
CCOc1ccccc1C1C(C(=O)N2CCCCC2)=C(C)Nc2nc3ccccc3n21 (stereo not drawn) -12.7%
Cc1cccc(OCC(=O)N(Cc2cccs2)c2ccc(Cl)cc2)c1C -4.5%
CCCCCS(=O)(=O)c1oc(-c2cccs2)nc1S(=O)(=O)c1ccc(C)cc1 0.144%
N[C@@H](CSSC[C@H](N)C(=O)O)C(=O)O -17.6% [at 0.46 µM]
CC(C)(C)OC(=O)N1CCC(c2c(C(=O)N3CCC(c4ccccc4)C3)cnn2-c2cccc(Cl)c2)CC1 (stereo not drawn) -18.1%
COc1ccc(C2CC(=O)N(CC(=O)Nc3cc(C)ccc3C)c3ccccc3S2)cc1 (stereo not drawn) -4.15%
CCCCN(CCCC)C(=O)c1cc2c(=O)n3cccc(C)c3nc2s1 0.195%
CCCCc1ccc(NC(=O)c2cc3c(=O)n4ccccc4nc3s2)cc1 -16.9%
COc1ccccc1-c1nnc(SCC(=O)c2ccc(Cl)cc2)n1-c1ccccc1 11.6%
CC(NC(=O)c1ccc2c(c1)CCN2S(=O)(=O)c1ccc(Cl)cc1)c1ccccc1 (stereo not drawn) -15.9%
CCOc1ccc(NC(=O)CSc2nc3c(oc4ccccc43)c(=O)n2-c2ccccc2C)cc1 1.5%
Cc1cc2n(n1)C(c1cc(C(C)(C)C)c(O)cc1O)Nc1ccccc1-2 (stereo not drawn) -19.6%
CC(C)=CCC1C(=O)N(c2ccccc2)N(c2ccccc2)C1=O -5.51%
CCOc1ccc(C(=O)N2CCC(c3nc4ccccc4o3)CC2)cc1 -14.7%
CSc1cccc(NC(=O)CN2C(=O)COc3ccc(Cl)cc32)c1 -9.87%
CCOc1ccc(OCC)c(NC(=O)c2nnn(CC(=O)Nc3ccc(C)cc3C)c2N)c1 -14.2%
CCCCOc1ccc(C(=O)Nc2cccc(-c3nc4cccnc4s3)c2)cc1 -24.8%
Cc1ccc(-c2nc3sc(CCNC(=O)c4ccc(Br)o4)c(C)n3n2)cc1 -15.1%
COc1ccc(-c2cc3ccc(O)c(CN4CCOCC4)c3oc2=O)cc1OC 6.53%
COc1ccc(NC(=O)COc2ccc(-c3nn(C)c(=O)c4ccccc34)cc2)cc1 -9.68%
COc1ccccc1CNC(=O)C(NS(=O)(=O)c1cccs1)C(C)C (stereo not drawn) -9.44%
COc1ccc(C2=NN(CC(=O)NCCc3ccc(OC)c(OC)c3)C(=O)CC2)cc1 -10.7%
COc1ccc(N(C)C(=O)c2cn(C3CCCCC3)c(=O)c3c2c2ccccc2n3C)cc1 -16.2%
Cc1ccc(NC(=O)NCCc2c(C)nn(C)c2C)cc1Cl -3.93%
CCn1ccc2cc(S(=O)(=O)N3CCCN(C(=O)Nc4cccc(Cl)c4)CC3)ccc21 -36.5%
COc1ccccc1NC(=O)C(=O)NCCc1csc(-c2cccc(F)c2)n1 -25.6%
CCCCN(CC)CCCNC(=O)CCN1N=C(c2ccc(OC)cc2)CCC1=O -10.3%
CCOC(=O)c1c(S(=O)(=O)N2CCCC(C(=O)Nc3cccc(Cl)c3)C2)c(C)n(C)c1C (stereo not drawn) -19%
Cc1ccc(OCC(=O)Nc2nnc(SCc3cc(=O)c4ccccc4[nH]3)s2)cc1 -0.0249%
CCOc1ccccc1C(=O)Nc1ccc2nc(N(CC)CC)cc(C)c2c1 -5.95%
CCOc1ccc(CNS(=O)(=O)c2cc3c(cc2C)NC(=O)CO3)cc1OC 6.08%
COc1ccccc1NC(=O)C1=C(C)Nc2ncnn2C1c1ccccc1C(=O)O (stereo not drawn) -20.3%
COc1cccc(CNC(=O)c2cc3c(s2)-c2ccccc2OC3)c1 -2.95%
COc1ccc(-n2c(=O)c3c4c(sc3n(Cc3ccc(F)cc3)c2=O)CCCC4)c(OC)c1 -10.9%
COc1ccc(NC(=O)c2cc(C3CC3)nc3c2c(C)nn3-c2ccccc2)cc1 -13.8%
Cc1cccc(NC(=O)c2c(C)oc3ncn(CC(C)C)c(=O)c23)n1 -5.71%
CC(=O)N1CCc2cc(S(=O)(=O)CCC(=O)N3CCN(c4cccc(C)c4C)CC3)ccc21 -13.3%
Cc1cccc(OCC(O)CNC(C)(C)C)c1C (stereo not drawn) -13%
Cc1nc2c(C(=O)NCc3ccccc3)c[nH]n2c(=O)c1Cc1ccccc1Cl -4.85%
Cc1sc2ncn(CC(=O)N(C)c3ccc(Br)cc3)c(=O)c2c1S(=O)(=O)N1CCC(C)CC1 -10.8%
CCOc1ccc(-c2nnc(Nc3ccc(S(N)(=O)=O)cc3)c3ccccc23)cc1 -10.4%
CCCOC1(C(F)(F)F)NC(=O)N(c2ccc(Cl)cc2)C1=O (stereo not drawn) -10.8%
CC(C)(C)c1ccc(OCC(=O)N2CCC(c3nc4ccccc4s3)CC2)cc1 -7.56%
Cc1cc(C)c(NC(=O)CSc2nc(=O)[nH]c3c2CCCC3)c(C)c1 -20%
COc1ccc(NC(=O)c2noc3c2CCCC3)cc1Cl -16.3%
COc1cccc(NC(=O)Nc2cccc(-c3cn4cccnc4n3)c2)c1 -8.84%
O=C(NCCc1ccccc1)c1cc(-c2ccc(Cl)cc2)on1 -11.2%
Cc1ccc(NC(=O)Nc2ccc3c(c2)N(C)C(=O)c2ccccc2S3)c(C)c1 8.33%
COc1ccccc1NC(=O)c1c(NCc2ccc(OC)c(OC)c2OC)sc2c1CCCC2 -11%
